Measurements taken from PubChem BioAssay AID1466 (National Center for Advancing Translational Sciences (NCATS), 2008).
The campaign covered roughly 200,000 compounds. About 10 (0.005%) were called active. This list was built around the results that the source calls inconclusive (neither active nor inactive); the mix of calls is not that of the screen. Calls follow the shape of the dose curve; as a rule, active = well fitted inhibition curve with a large enough effect; inconclusive = small, poorly fitted or top-dose-only effect, or effect the other way, or another doubt; inactive = no such curve, though single readings can be large or run the other way. Where the call is inconclusive, the potency comes from a doubtful curve fit.

biological target: Lysosomal alpha-glucosidase (Homo sapiens) (UniProt P10253); test: qHTS Assay for Inhibitors of Human alpha-Glucosidase as a Potential Chaperone Treatment of Pompe Disease; conditions: purified human GAA, 4-MU-alpha-glucoside fluorescence; activity change, negative = inhibition: at 76.9 µM (top of the series) unless noted;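 as to activity change, negative = inhibition: plate controls were uninhibited enzyme wells for no effect and no-enzyme background for full effect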
Summary of the method: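 AC50 values come from Hill fits of compound titrations (up to 77 uM) against 4 nM human enzyme. Substrate 4-methylumbelliferyl-alpha-D-pyranoside at 400 uM, pH 5.0 citrate buffer, 20 min room temperature; fluorescence Ex 365/Em 440 after alkaline stop.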
Potency is read from the fitted curve at half-maximal effect; tags tell the direction and shape of the fitted curve.

SMILES | Potency | activity change, negative = inhibition
CCN1CCCC1CNC(=O)c1ccc2c(=O)n(CCOC)c(=O)[nH]c2c1 (stereo not drawn) | inconclusive: 31.6 µM [activator, partial curve] | 
CCn1c(CSc2nccn2C)nc2cc(C(=O)O)ccc21 | inconclusive: 28.2 µM [activator, single point] | 
N#CC1=C(N)Oc2[nH]c(=S)[nH]c(=O)c2C12C(=O)Nc1ccccc12 (stereo not drawn) |  | inconclusive: 17.2% [activator]
O=c1[nH]c(=S)[nH]c2[nH]c(=S)[nH]c12 |  | inconclusive: 11% [activator]
C/C(=N\NC(=O)COc1ccc(C)cc1Br)c1cc([N+](=O)[O-])cs1 |  | inconclusive: 15.8% [activator]
Cc1ccc(-c2nc(N/N=C/c3cccc([N+](=O)[O-])c3)c3ccccc3n2)cc1 | inconclusive: 0.178 µM [inhibitor, full curve, poor fit] | 
CCCOC(=S)N/C(=N\S(=O)(=O)c1ccccc1)c1ccccc1 | inconclusive: 8.91 µM [inhibitor, partial curve] | 
NC(=O)c1nsc(C(=O)N(c2cccc(F)c2)C(C(=O)NCC2CCCO2)c2cccs2)c1N (stereo not drawn) | inconclusive: 44.7 µM [activator, single point] | 
Cc1cccc(Nc2c([N+](=O)[O-])c(=O)n(C)c3ccccc23)c1 |  | inactive: -0.0004%
COc1cc(C(=O)NCCCNc2nc3cc(C)cc(C)c3cc2C#N)cc(OC)c1OC | inconclusive: 22.4 µM [activator, partial curve] | 
COc1ccc(-c2nc(CN3CCCC(C(=O)NC4CCCC4)C3)c(C)o2)cc1 (stereo not drawn) | inconclusive: 0.282 µM [inhibitor, full curve, poor fit] | 
CCOc1ccc(NC(=S)Nc2ccc(OC)cc2)cc1 |  | inconclusive: 13.2% [activator]
CCOC(=O)c1c(-c2ccccc2)csc1NC(=O)CSc1nnnn1C | inconclusive: 31.6 µM [inhibitor, single point] | 
CO/N=C/c1ccc(N2CCN(C(=O)c3cccc(C(F)(F)F)c3)CC2)c([N+](=O)[O-])c1 | inconclusive: 1.26 µM [inhibitor, partial curve, poor fit] | 
CCn1nc(C)c(C2C(C#N)=C(N)OC3=C2C(=O)CCC3)c1C (stereo not drawn) | inconclusive: 5.01 µM [inhibitor, full curve, poor fit] | 
CCOc1ccc(-c2cc3cc(OC)c(OC)cc3c(C)n2)cc1 | inconclusive: 11.2 µM [inhibitor, single point] | 
S=c1[nH]nc(C2CCCCC2)n1/N=C/c1ccco1 | inconclusive: 6.31 µM [inhibitor, single point] | 
c1ccc(CCn2nnnc2CN2CCc3ccccc32)cc1 |  | inactive: -1.75%
Cc1cccc(N2CCN(C(=O)CS(=O)(=O)Cc3nc(-c4ccccc4F)oc3C)CC2C)c1 (stereo not drawn) | inconclusive: 31.6 µM [inhibitor, single point] | 
COc1ccc(NC(=S)N2CCCC(c3nc4ccc(C)cc4[nH]3)C2)c(OC)c1 (stereo not drawn) |  | inactive: -4.73%
O=C(N=Nc1c(O)[nH]c2ccccc12)c1cccs1 | inconclusive: 0.891 µM [inhibitor, full curve, poor fit] | 

SMILES | Potency | activity change, negative = inhibition
Cc1ccc(S(=O)(=O)N2CCN(C(=O)CCC(=O)OCC(=O)Nc3cccc(C#N)c3)CC2)cc1 | inconclusive: 35.5 µM [inhibitor, single point] | 
COCCNC(=O)c1c[nH]c2ccc(S(=O)(=O)N3CCC4(CC3)OCCO4)cc2c1=O | inconclusive: 39.8 µM [inhibitor, partial curve, poor fit] | 
CCCc1c2ccccc2nc2ccccc12 | inconclusive: 20 µM [activator, partial curve] | 
O=C(NCCc1cn2ccccc2n1)c1cc(COc2c(F)cccc2F)on1 |  | inconclusive: 5.9% [activator]
COc1ccc(/C=C/C(=O)NCCOc2ccccc2OC)cc1 | inconclusive: 44.7 µM [inhibitor, single point] | 
CC1=C(C#N)C(Nc2ccc(C)cn2)(C(F)(F)F)C(=O)N1 (stereo not drawn) | inconclusive: 12.6 µM [inhibitor, single point] | 
CC(=O)Nc1ccc(Oc2ccc([N+](=O)[O-])cc2Cl)cc1 | inconclusive: 56.2 µM [inhibitor, single point] | 
CC(C)[C@H](NC(=O)Nc1ccc(S(N)(=O)=O)cc1)C(=O)O | inconclusive: 12.6 µM [inhibitor, single point] | 
COc1cc(C)ccc1OCCOc1c(C)cccc1Cl | inconclusive: 0.631 µM [inhibitor, full curve, poor fit] | 
COC(=O)c1ccccc1NC(=O)Cn1c(=O)oc2ccc(Cl)cc21 | inconclusive: 11.2 µM [inhibitor, single point] | 
O=C(Cn1nnc(-c2ccccc2)n1)N/N=C/c1cccc([N+](=O)[O-])c1 | inconclusive: 50.1 µM [inhibitor, single point] | 
O=C(CCSc1nc(-c2ccc3c(c2)OCO3)cc(C(F)(F)F)n1)NCc1ccccc1 | inconclusive: 35.5 µM [activator, single point] | 
CCOC(=O)c1cc2c(=O)n3ccccc3nc2n(C(C)C)c1=NC(=O)c1ccco1 | inconclusive: 44.7 µM [activator, single point] | 
O=[N+]([O-])c1cc([N+](=O)[O-])c2cccnc2c1O | inconclusive: 11.2 µM [inhibitor, partial curve, poor fit] | 
CN(C)c1ccc(N/C=C/C(=O)C(C)(C)C)cc1 |  | inactive: -2.98%
Cc1ccc(-c2nc(CSc3nc4ccccc4c(=O)n3CCO)cs2)cc1 | inconclusive: 50.1 µM [inhibitor, single point] | 
COc1cc2c(cc1OC)C(C)N(C(=O)c1cc3c(=O)oc4ccc(C)cc4c3s1)CC2 (stereo not drawn) | inconclusive: 28.2 µM [activator, single point] | 
CCOC(=O)c1nn(-c2ccccc2)c(C#N)c1NC(=O)c1nn(CC)cc1Br | inconclusive: 7.94 µM [inhibitor, full curve] | 
Nn1cc(-c2ccccc2)nc1SCC(=O)N1CCN(S(=O)(=O)c2ccc3ccccc3c2)CC1 | inconclusive: 50.1 µM [inhibitor, single point] | 
CCOC(=O)N1CCC(NC(=O)c2sc(-n3cccc3)nc2C)CC1 | inconclusive: 50.1 µM [inhibitor, single point] | 
COc1ccc(C(C[N+](=O)[O-])C2(c3ccc(OC)c(OC)c3)C(=O)c3ccccc3C2=O)cc1 (stereo not drawn) | inconclusive: 11.2 µM [inhibitor, partial curve] | 

SMILES | Potency | activity change, negative = inhibition
Cc1ccc(C2=NN(C(=O)C3CCCO3)C(c3ccco3)C2)cc1 (stereo not drawn) | inconclusive: 1.58 µM [inhibitor, full curve, poor fit] | 
COc1ccc(-c2c(C#N)c(N)nc3c2CCC3)cc1 | inconclusive: 39.8 µM [activator, single point] | 
COCC(=O)NC1CCN(S(=O)(=O)c2cccc(C(C)=O)c2)CC1 |  | inconclusive: 4.63% [activator]
CCOc1ccc(CN2CCN(Cc3cnn(CC)c3C)CC2CCO)cc1 (stereo not drawn) | inconclusive: 0.178 µM [inhibitor, full curve, poor fit] | 
c1ccc(-c2ccc(C(c3ccccc3)n3ccnc3)cc2)cc1 (stereo not drawn) |  | inconclusive: -3.1% [inhibitor] [at 15.4 µM]
COc1ccc(C(=O)C[n+]2ccc(N)c(C)c2C)cc1 | inconclusive: 0.158 µM [activator, full curve, poor fit] | 
CC(=O)C1=C(C)NC(SCC(N)=O)=C(C#N)C1c1ccco1 (stereo not drawn) |  | inactive: -2.5%
O=C(O)c1ccccc1NS(=O)(=O)c1ccc(NNC(=S)Nc2ccc(OC(F)F)cc2)c([N+](=O)[O-])c1 | inconclusive: 35.5 µM [inhibitor, single point] | 
C=CCn1c(COc2ccccc2F)nnc1SCC(=O)Nc1cc2oc3ccccc3c2cc1OC | inconclusive: 39.8 µM [inhibitor, single point] | 
C[n+]1cccc(C(=O)NNC(=O)C23CC4CC(CC(C4)C2)C3)c1 | inconclusive: 12.6 µM [inhibitor, single point] | 
Cc1oc2ccc(OC(=O)c3cccs3)cc2c1C(=O)OC(C)C | inconclusive: 7.94 µM [inhibitor, full curve] | 
Oc1ccccc1CNc1cnc2ccccc2c1 |  | inactive: 8.1%
O=C(O)CC1S/C(=N/N=C/C2CC=CCC2)NC1=O (stereo not drawn) |  | inconclusive: 17.2% [activator]
Cc1cccc(NC(=O)Nc2cnccn2)c1 | inconclusive: 7.94 µM [inhibitor, single point] | 
CCOc1ccccc1C1C(C(N)=O)=C(C)Nc2nc(CCCO)nn21 (stereo not drawn) | inconclusive: 0.708 µM [inhibitor, partial curve] | 
COc1ccc(C(=O)c2c(C(F)(F)F)oc3c2C(=O)c2ccccc2C3=O)cc1 |  | inactive: -15.4%
COc1ccccc1NC(=O)c1ccc(NC(=O)CSc2nncn2C)cc1 | inconclusive: 10 µM [inhibitor, partial curve] | 
CCN(CC)S(=O)(=O)c1cccc(NC(=O)Nc2cccc(C(F)(F)F)c2)c1 | inconclusive: 17.8 µM [inhibitor, partial curve, poor fit] | 
CC1CCc2c(C(=O)N3CCN(S(=O)(=O)c4cccs4)CC3)csc2C1 (stereo not drawn) | inconclusive: 28.2 µM [inhibitor, partial curve, poor fit] | 
COc1ccc2c(c1)C=C([C@@H]1C[C@H]3CN(c4ccccc4)C(=O)[C@]34CCCN14)CO2 |  | inconclusive: -15.7% [inhibitor]
CCCCCCn1cc(C(=O)O)c(=O)c2ccccc21 |  | inactive: 13.4%
